Measurements from the supplement of paper PMC10126150.
Sequences with one replicate were seen in a single cluster, so their values are uncertain.
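Further: ATP exposure 15 min at 22 °C before imaging.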

The sequences below were run on ATP (assay: switch fluorescence ratio, 500 uM ATP over buffer (Cy3 cluster intensity, sum of 5 cycles each) (fold (ratio)); higher = stronger signal-on switching upon ATP binding; sequences stand for … in TCGTCGGCAGCGTCAGATGTGTATAAGAGACAGTTTTTTTTTTTTTTTTTTTTTTTTT…TC). Conditions: aptamer strand: ATP DNA aptamer (quencher-CACCTGGGGGAGTATTGCGGAGGAAGG + anchor), 100 nM annealed; ATP concentration: 500 uM; one replicate.
Summary of the method: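 Five buffer/ATP imaging cycles were run on Cy3-labelled switching-strand clusters on a modified Illumina MiSeq flow-cell, with NaOH stripping and re-annealing between cycles. In each cycle, clusters annealed to 100 nM quencher-labelled ATP aptamer were imaged in selection buffer, then after 15 min with 500 uM ATP at 22 °C. Per cluster, the fluorescence ratio is summed target-cycle over summed buffer-cycle Cy3 intensity, averaged per switch-domain sequence. Only clusters within 100-1000 RFU were kept.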
For CCGGGCTTCC, the switch fluorescence ratio was 2.05. CCGGGGAGAA showed a switch fluorescence ratio of 1.17. Sequence CCGGGGGAAA has a switch fluorescence ratio of 0.972. Work on CCGGGGTTTC yielded a switch fluorescence ratio of 1.11. In the case of CCGGTAAGCC, the switch fluorescence ratio is reported as 1.19. CCGGTACTCA was tested, and the switch fluorescence ratio was 3.21. Work on CCGGTAGTA yielded a switch fluorescence ratio of 1.11. CCGGTCCTAG was tested, and the switch fluorescence ratio was 1.06. Sequence CCGGTCCTTG has a switch fluorescence ratio of 1.01. Sequence CCGGTGAATA has a switch fluorescence ratio of 1.3. CCGGTGCCCG gave a switch fluorescence ratio of 1.15. Work on CCGGTGCTTC yielded a switch fluorescence ratio of 2.3. In the case of CCGGTGCTTG, the switch fluorescence ratio is reported as 1.09. Work on CCGGTGGTGG yielded a switch fluorescence ratio of 0.95. Work on CCGGTTAGAT yielded a switch fluorescence ratio of 1.03. Work on CCGGTTCTAA yielded a switch fluorescence ratio of 1.03. For CCGGTTGTAT, the switch fluorescence ratio was 1.13. Sequence CCGGTTTGCT has a switch fluorescence ratio of 1.05. With CCGGTTTTCC the switch fluorescence ratio was 0.996. With CCGTAAAA the switch fluorescence ratio was 1.1. With CCGTAAAGGG the switch fluorescence ratio was 1.07. For CCGTAAGTTG, the switch fluorescence ratio was 1.09. CCGTAATTA showed a switch fluorescence ratio of 3.92. For CCGTAGTGCT, the switch fluorescence ratio was 2.65. CCGTATTGGA gave a switch fluorescence ratio of 0.993. In the case of CCGTCGAAGC, the switch fluorescence ratio is reported as 1.16. Work on CCGTCGACTG yielded a switch fluorescence ratio of 1.01. For CCGTCGGTTG, the switch fluorescence ratio was 1.08. For CCGTCGTCGC, the switch fluorescence ratio was 0.965. CCGTCTACTT gave a switch fluorescence ratio of 1.07. CCGTCTCTTG was tested, and the switch fluorescence ratio was 1.04. CCGTCTGC showed a switch fluorescence ratio of 1.22. With CCGTCTTCGG the switch fluorescence ratio was 0.985. CCGTGACCGT showed a switch fluorescence ratio of 1.03. Work on CCGTGAGCGG yielded a switch fluorescence ratio of 1.11. CCGTGCGTCC showed a switch fluorescence ratio of 1.34. CCGTGTGATC gave a switch fluorescence ratio of 1.07. CCGTTAAGCA showed a switch fluorescence ratio of 2.22. With CCGTTACGCG the switch fluorescence ratio was 1.03. CCGTTGCCCA showed a switch fluorescence ratio of 1.09. For CCGTTGGCGC, the switch fluorescence ratio was 1.04. Work on CCTAAAACGG yielded a switch fluorescence ratio of 0.994. In the case of CCTAAAGCT, the switch fluorescence ratio is reported as 1.22. CCTAAATAAT showed a switch fluorescence ratio of 1.1. CCTAACGACA gave a switch fluorescence ratio of 1.41. Sequence CCTAACGCCC has a switch fluorescence ratio of 2.73. For CCTAAGGGAA, the switch fluorescence ratio was 1.08. For CCTAATGAGT, the switch fluorescence ratio was 0.989. For CCTAGATCGG, the switch fluorescence ratio was 0.974. In the case of CCTAGCCGGC, the switch fluorescence ratio is reported as 1.11. Sequence CCTAGGCACG has a switch fluorescence ratio of 1.36. CCTATCAAAT gave a switch fluorescence ratio of 1.01. CCTATCGCTT was tested, and the switch fluorescence ratio was 4.85. Sequence CCTATCTTGC has a switch fluorescence ratio of 1.04. Sequence CCTATGTTGA has a switch fluorescence ratio of 1.04. In the case of CCTATTCCC, the switch fluorescence ratio is reported as 1.03. CCTATTTTCA showed a switch fluorescence ratio of 1.02. CCTCAAATAA showed a switch fluorescence ratio of 4.08. Sequence CCTCAAATCA has a switch fluorescence ratio of 1.37. Work on CCTCAACCAT yielded a switch fluorescence ratio of 1.28. Work on CCTCAATTTC yielded a switch fluorescence ratio of 2.76. Sequence CCTCACCCCG has a switch fluorescence ratio of 1.37. Work on CCTCATAGAT yielded a switch fluorescence ratio of 1.52. CCTCATGGCC was tested, and the switch fluorescence ratio was 1.14. CCTCCCTCCG showed a switch fluorescence ratio of 2.81. With CCTCCCTCGG the switch fluorescence ratio was 2.55. With CCTCCGTGCG the switch fluorescence ratio was 3.96. Sequence CCTCGACAC has a switch fluorescence ratio of 3.88. With CCTCGAGCCT the switch fluorescence ratio was 1.87. Sequence CCTCGCGCCT has a switch fluorescence ratio of 3.95. CCTCTAGTGG showed a switch fluorescence ratio of 1.07. For CCTCTCAAAT, the switch fluorescence ratio was 4.3. For CCTCTGGCCA, the switch fluorescence ratio was 3.37. For CCTCTGGGTT, the switch fluorescence ratio was 2.34. Sequence CCTCTTGGGT has a switch fluorescence ratio of 0.999. In the case of CCTGAAATCC, the switch fluorescence ratio is reported as 1.36. For CCTGAAATGT, the switch fluorescence ratio was 1.12. In the case of CCTGACCGGT, the switch fluorescence ratio is reported as 1.02. For CCTGACGGGA, the switch fluorescence ratio was 0.965. With CCTGACTCAG the switch fluorescence ratio was 1.47. For CCTGACTTCC, the switch fluorescence ratio was 3.52. In the case of CCTGAGAAAC, the switch fluorescence ratio is reported as 1.04. Sequence CCTGAGGTCA has a switch fluorescence ratio of 0.982. Sequence CCTGCAGGGT has a switch fluorescence ratio of 1.3. CCTGCTGGGG showed a switch fluorescence ratio of 1.
